Among all 310,000 compounds or so, about 14,000 (4.5%) showed an effect of 50% or more. The effect is printed as a negative number. The list shows a part of the results.
biological target: human ether-à-go-go-related gene (hERG) potassium channel (human, UniProt Q12809); experiment: primary screen, population patch clamp on CHO cells stably expressing hERG
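Note: peak tail current of the secondary pulse compared with the same well before compound.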

Sequence of human ether-à-go-go-related gene (hERG) potassium channel (Q12809 whole entry, looked up): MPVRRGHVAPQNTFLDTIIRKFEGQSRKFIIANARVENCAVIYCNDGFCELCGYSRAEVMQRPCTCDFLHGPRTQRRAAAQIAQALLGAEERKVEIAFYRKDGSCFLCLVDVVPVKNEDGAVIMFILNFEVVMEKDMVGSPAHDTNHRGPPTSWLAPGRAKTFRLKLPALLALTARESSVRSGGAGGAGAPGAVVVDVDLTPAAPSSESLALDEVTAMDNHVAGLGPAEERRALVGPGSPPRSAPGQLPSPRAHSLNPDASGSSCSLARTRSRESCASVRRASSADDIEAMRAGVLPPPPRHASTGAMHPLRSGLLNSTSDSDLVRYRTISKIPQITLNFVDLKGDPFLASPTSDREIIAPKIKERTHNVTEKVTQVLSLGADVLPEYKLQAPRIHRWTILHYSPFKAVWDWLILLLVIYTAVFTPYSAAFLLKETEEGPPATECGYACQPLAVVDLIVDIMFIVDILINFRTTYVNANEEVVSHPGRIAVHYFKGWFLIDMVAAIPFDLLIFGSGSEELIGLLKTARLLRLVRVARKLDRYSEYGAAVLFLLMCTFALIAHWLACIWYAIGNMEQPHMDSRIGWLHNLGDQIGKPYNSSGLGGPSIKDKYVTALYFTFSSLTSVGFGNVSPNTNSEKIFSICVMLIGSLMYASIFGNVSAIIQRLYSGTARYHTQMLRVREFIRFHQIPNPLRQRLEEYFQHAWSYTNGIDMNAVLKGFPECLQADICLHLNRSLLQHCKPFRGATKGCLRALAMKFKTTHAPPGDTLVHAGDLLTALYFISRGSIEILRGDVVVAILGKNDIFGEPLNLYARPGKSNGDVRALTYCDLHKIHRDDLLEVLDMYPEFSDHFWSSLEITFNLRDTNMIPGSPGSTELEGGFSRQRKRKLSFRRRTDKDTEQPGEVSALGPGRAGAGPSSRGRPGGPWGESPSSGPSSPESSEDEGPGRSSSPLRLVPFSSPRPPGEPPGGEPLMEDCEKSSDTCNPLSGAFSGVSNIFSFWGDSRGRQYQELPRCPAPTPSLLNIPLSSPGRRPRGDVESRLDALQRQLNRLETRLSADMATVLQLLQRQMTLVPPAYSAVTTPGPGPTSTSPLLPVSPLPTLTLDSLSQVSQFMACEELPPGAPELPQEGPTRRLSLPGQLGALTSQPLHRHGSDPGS

Going from `O=C(OCc1nc(-c2ccccc2Cl)no1)c1ccco1` to `Cc1cnc(NC(=O)c2cc3c(C)nn(Cc4ccccc4Cl)c3s2)s1`, the “hERG current change (%, negative = inhibition) at 10uM” value falls from 8.73% to 7.55%.

First: Cc1ccc(-c2nn3c(C)nnc3s2)cc1NC(=O)c1ccc(Br)o1
Second: CCC(Sc1nnc(-c2ccc(C)c(Cl)c2)n1CC)C(=O)Nc1nccs1 (centres unmarked)
The “hERG current change (%, negative = inhibition) at 10uM” value of the first is higher: -14.4% for the first, -20.6% for the second.

Going from `CCCn1c(CCC(=O)O)nc2cc(S(=O)(=O)N3CCCC3)ccc21` to `Cl.O=C(NCCCn1ccnc1)c1ccc(S(=O)(=O)N2CCCCCC2)cc1`, the “hERG current change (%, negative = inhibition) at 10uM” value falls from 12.1% to -7.07%.

Going from `CC1=CC(C)(C)Nc2ccc(OC(=O)CN3C(=O)c4cccc5cccc(c45)C3=O)cc21` to `COc1ccc(NC(=O)c2cccnc2Sc2ccccc2)c(OC)c1`, the “hERG current change (%, negative = inhibition) at 10uM” value rises from -0.811% to 7.52%.

First: CCCC(C(=O)c1ccccc1)n1cncn1 (centres unmarked)
Second: CCOC(=O)C(NC(=O)c1ccccc1)=C(C)C
The “hERG current change (%, negative = inhibition) at 10uM” value of the first is higher: 18.8% for the first, 7.07% for the second.

First: CC(C)C(C(=O)NCc1ccco1)N(CC1CCCO1)C(=O)CNS(=O)(=O)c1ccccc1 (centres unmarked)
Second: O=C(NCCc1ccccc1)C(=O)NCC1CCCO1 (centres unmarked)
The “hERG current change (%, negative = inhibition) at 10uM” value of the first is higher: 1.79% for the first, -0.491% for the second.

Compared with `Cc1cc(C)nc(SCc2nnc(SCC(=O)Nc3ccc(Cl)c(C(F)(F)F)c3)o2)n1`, `COc1ccc2nc(SCC(=O)Nc3ccc(S(=O)(=O)N4CCCC4)cc3)c(C#N)cc2c1` is lower in “hERG current change (%, negative = inhibition) at 10uM” value: 6.31% for the first, -10.3% for the second.

Going from `O=S(=O)(Nc1cccc(-n2cnnn2)c1)c1cccc(Cl)c1` to `O=C(Nc1ccc(S(=O)(=O)N2CCCC2)cc1)C1CC(=O)N(c2ccccc2)C1` (centres unmarked), the “hERG current change (%, negative = inhibition) at 10uM” value rises from 16.2% to 33.9%.

First: COc1ccccc1N(CC(=O)N/N=C/c1ccccc1C(=O)O)S(C)(=O)=O
Second: COc1cc(C(=O)NC(c2ccccc2)c2ccccc2)cc(OC)c1OC
The “hERG current change (%, negative = inhibition) at 10uM” value of the first is higher: 16.3% for the first, -16.6% for the second.

Compared with `COc1ccc(NS(=O)(=O)c2ccc(O)c(C(=O)OCC(=O)NC3CCCCC3)c2)cc1`, `Cc1cccc(NC(=O)c2cc([N+](=O)[O-])ccc2N2CCCCC2)n1` is lower in “hERG current change (%, negative = inhibition) at 10uM” value: 7.23% for the first, -35.1% for the second.

Going from `Cc1ccc(Nc2nc(Oc3ccc(OCc4ccccc4)nn3)nc(N3CCOCC3)n2)cc1` to `O=C(CSc1nc2sc3c(c2c(=O)n1-c1ccccc1)CCCC3)N/N=C/c1ccc(C(=O)O)cc1`, the “hERG current change (%, negative = inhibition) at 10uM” value rises from 3.53% to 5.26%.

First: COc1ccc(-c2nc(C)sc2CC(=O)O)cc1OC
Second: COc1cc(/C=C/C(=O)OCC(=O)Nc2c(C)n(C)n(-c3ccccc3)c2=O)cc(OC)c1OC
The “hERG current change (%, negative = inhibition) at 10uM” value of the first is higher: 17.4% for the first, 7.25% for the second.

First: N#Cc1cc([N+](=O)[O-])ccc1NCC1CCCO1 (centres unmarked)
Second: O=C(NCCN1CCOCC1)c1cc2cc([N+](=O)[O-])ccc2s1
The “hERG current change (%, negative = inhibition) at 10uM” value of the first is higher: -8.37% for the first, -63.3% for the second.

Compared with `COc1cc2c(cc1OC)C(C)N(C(=O)CCN1C(=O)C3C4C=CC(C4)C3C1=O)CC2` (centres unmarked), `COc1cccc(OC)c1C(=O)NCCN1CCN(C(=O)c2c(OC)cccc2OC)CC1` is lower in “hERG current change (%, negative = inhibition) at 10uM” value: 16% for the first, 6.88% for the second.

Compared with `CC(NC(=O)c1cccs1)C1CCCO1` (centres unmarked), `CC1CCN(C(=S)NC(=O)c2ccccc2)CC1` is lower in “hERG current change (%, negative = inhibition) at 10uM” value: 5.46% for the first, -33.4% for the second.

Going from `CC(C)OCCCNC(=S)NNC(=O)C(c1ccccc1)c1ccccc1` to `O=C(CNC(=O)c1ccccc1)NCC(=O)OCC(=O)c1ccc(F)cc1`, the “hERG current change (%, negative = inhibition) at 10uM” value falls from 13.3% to -1.77%.

Compared with `C/C=C(/C)C(=O)Nc1cccc(C2=NOC3(C2)C[C@@H](C(N)=O)N(C(=O)CCCCC)C3)c1` (some centres unmarked), `CCCCNCCCOc1ccc(C)cc1Br.O=C(O)C(=O)O` is higher in “hERG current change (%, negative = inhibition) at 10uM” value: -40.1% for the first, -35% for the second.

Compared with `CN1CCN(/N=C/c2ccc(N(C)c3ccccc3)cc2)CC1`, `CN(C)c1cccc(/C=C(\C#N)c2ccccc2)c1` is higher in “hERG current change (%, negative = inhibition) at 10uM” value: -10.7% for the first, 18.5% for the second.

Compared with `S=C(Nc1ccccc1Cl)NC1CC2CCCC(C1)N2C1CC1` (centres unmarked), `O=C(NC(=S)N1CCCC1)c1ccc(Cl)cc1` is higher in “hERG current change (%, negative = inhibition) at 10uM” value: -23.8% for the first, 15.8% for the second.

Going from `CCOc1ccc(OCC)c(NC(=O)CCNS(=O)(=O)c2cc(Br)cnc2N)c1` to `CC(NC(=O)CCl)c1ccc(Cl)c(Cl)c1` (centres unmarked), the “hERG current change (%, negative = inhibition) at 10uM” value rises from -8.95% to -2.59%.

First: COc1ccc(S(=O)(=O)N2CCC3(CC2)OCCN3S(=O)(=O)c2cccs2)cc1OC
Second: O=C(Oc1cccc([N+](=O)[O-])c1)N1CCCCC1
The “hERG current change (%, negative = inhibition) at 10uM” value of the first is lower: -23.2% for the first, -0.619% for the second.

Going from `CN1C(=S)SC(/[N+]([O-])=C/c2cccnc2)C1(C)C` (centres unmarked) to `O=C(COC(=O)/C=C/c1ccc([N+](=O)[O-])cc1)NCc1ccccc1`, the “hERG current change (%, negative = inhibition) at 10uM” value rises from -0.033% to 2.07%.

From publication PMC4336329 (PLoS ONE, 2015)
